Assay results taken from paper PMC9911399, “Two distinct binding modes provide the RNA-binding protein RbFox with extraordinary sequence specificity”.
Changes are numbered by the printed parent chain; changes in the protein carry UniProt numbers. The list shows a part of the results.

T1: RBFOX1 RRM (Homo sapiens, UniProt Q9NWB1 109-208)
T1 sequence: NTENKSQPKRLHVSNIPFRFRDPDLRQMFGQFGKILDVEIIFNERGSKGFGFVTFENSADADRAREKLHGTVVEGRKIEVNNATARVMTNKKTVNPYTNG

B1: AUCCCCU (DNA:RNA)
RNA: GGGAGACCGGAAUUCAGAUUGUCCAUCCCCUUUAAAUCCCGUCGUAGCCACCA
DNA 1: CAATCTGAATTCCGGTCTCCC
DNA 2: TGGTGGCTACGACGGGATT
B2: UCGAUCC (DNA:RNA)
RNA: B1 RNA with A25U, U26C, C27G, C28A, C29U, U31C
DNA 1: CAATCTGAATTCCGGTCTCCC
DNA 2: TGGTGGCTACGACGGGATT
B3: CAGGAAA (DNA:RNA)
RNA: GGGAGACCGGAAUUCAGAUUGUCCCAGGAAAUUAAAUCCCGUCGUAGCCACCA
DNA 1: CAATCTGAATTCCGGTCTCCC
DNA 2: TGGTGGCTACGACGGGATT
B4: AAGCGCA (DNA:RNA)
RNA: B1 RNA with U26A, C27G, C29G, U31A
DNA 1: CAATCTGAATTCCGGTCTCCC
DNA 2: TGGTGGCTACGACGGGATT
B5: AAAUUAC (DNA:RNA)
RNA: B3 RNA with C25A, G27A, G28U, A29U, A31C
DNA 1: CAATCTGAATTCCGGTCTCCC
DNA 2: TGGTGGCTACGACGGGATT
B6: GGUAACA (DNA:RNA)
RNA: B3 RNA with C25G, A26G, G27U, G28A, A30C
DNA 1: CAATCTGAATTCCGGTCTCCC
DNA 2: TGGTGGCTACGACGGGATT
B7: CAUAUAU (DNA:RNA)
RNA: B3 RNA with G27U, G28A, A29U, A31U
DNA 1: CAATCTGAATTCCGGTCTCCC
DNA 2: TGGTGGCTACGACGGGATT
B8: UGAUCCA (DNA:RNA)
RNA: B1 RNA with A25U, U26G, C27A, C28U, U31A
DNA 1: CAATCTGAATTCCGGTCTCCC
DNA 2: TGGTGGCTACGACGGGATT
B9: CCGUUUC (DNA:RNA)
RNA: B3 RNA with A26C, G28U, A29U, A30U, A31C
DNA 1: CAATCTGAATTCCGGTCTCCC
DNA 2: TGGTGGCTACGACGGGATT
B10: GAAUCGU (DNA:RNA)
RNA: B1 RNA with A25G, U26A, C27A, C28U, C30G
DNA 1: CAATCTGAATTCCGGTCTCCC
DNA 2: TGGTGGCTACGACGGGATT
B11: GACAUCC (DNA:RNA)
RNA: B1 RNA with A25G, U26A, C28A, C29U, U31C
DNA 1: CAATCTGAATTCCGGTCTCCC
DNA 2: TGGTGGCTACGACGGGATT
B12: AUUAGGU (DNA:RNA)
RNA: B1 RNA with C27U, C28A, C29G, C30G
DNA 1: CAATCTGAATTCCGGTCTCCC
DNA 2: TGGTGGCTACGACGGGATT
B13: ACUGAAG (DNA:RNA)
RNA: B3 RNA with C25A, A26C, G27U, A31G
DNA 1: CAATCTGAATTCCGGTCTCCC
DNA 2: TGGTGGCTACGACGGGATT
B14: CCCUUUC (DNA:RNA)
RNA: B1 RNA with A25C, U26C, C28U, C29U, C30U, U31C
DNA 1: CAATCTGAATTCCGGTCTCCC
DNA 2: TGGTGGCTACGACGGGATT
B15: AUUCUCC (DNA:RNA)
RNA: B1 RNA with C27U, C29U, U31C
DNA 1: CAATCTGAATTCCGGTCTCCC
DNA 2: TGGTGGCTACGACGGGATT
B16: AUAUAAU (DNA:RNA)
RNA: B1 RNA with C27A, C28U, C29A, C30A
DNA 1: CAATCTGAATTCCGGTCTCCC
DNA 2: TGGTGGCTACGACGGGATT
B17: AUGAUUG (DNA:RNA)
RNA: B1 RNA with C27G, C28A, C29U, C30U, U31G
DNA 1: CAATCTGAATTCCGGTCTCCC
DNA 2: TGGTGGCTACGACGGGATT
B18: AGGACGC (DNA:RNA)
RNA: B1 RNA with U26G, C27G, C28A, C30G, U31C
DNA 1: CAATCTGAATTCCGGTCTCCC
DNA 2: TGGTGGCTACGACGGGATT
B19: CCGGUGC (DNA:RNA)
RNA: B3 RNA with A26C, A29U, A30G, A31C
DNA 1: CAATCTGAATTCCGGTCTCCC
DNA 2: TGGTGGCTACGACGGGATT
B20: CGAUUCG (DNA:RNA)
RNA: B1 RNA with A25C, U26G, C27A, C28U, C29U, U31G
DNA 1: CAATCTGAATTCCGGTCTCCC
DNA 2: TGGTGGCTACGACGGGATT
B21: UUAGGGU (DNA:RNA)
RNA: B1 RNA with A25U, C27A, C28G, C29G, C30G
DNA 1: CAATCTGAATTCCGGTCTCCC
DNA 2: TGGTGGCTACGACGGGATT
B22: CUAAAUG (DNA:RNA)
RNA: B3 RNA with A26U, G27A, G28A, A30U, A31G
DNA 1: CAATCTGAATTCCGGTCTCCC
DNA 2: TGGTGGCTACGACGGGATT
B23: CCGAAGU (DNA:RNA)
RNA: B3 RNA with A26C, G28A, A30G, A31U
DNA 1: CAATCTGAATTCCGGTCTCCC
DNA 2: TGGTGGCTACGACGGGATT
B24: UCGCUUC (DNA:RNA)
RNA: B1 RNA with A25U, U26C, C27G, C29U, C30U, U31C
DNA 1: CAATCTGAATTCCGGTCTCCC
DNA 2: TGGTGGCTACGACGGGATT
B25: GACUGGG (DNA:RNA)
RNA: B1 RNA with A25G, U26A, C28U, C29G, C30G, U31G
DNA 1: CAATCTGAATTCCGGTCTCCC
DNA 2: TGGTGGCTACGACGGGATT
B26: ACAGACG (DNA:RNA)
RNA: B1 RNA with U26C, C27A, C28G, C29A, U31G
DNA 1: CAATCTGAATTCCGGTCTCCC
DNA 2: TGGTGGCTACGACGGGATT
B27: ACCACUC (DNA:RNA)
RNA: B1 RNA with U26C, C28A, C30U, U31C
DNA 1: CAATCTGAATTCCGGTCTCCC
DNA 2: TGGTGGCTACGACGGGATT
B28: ACGAGAU (DNA:RNA)
RNA: B1 RNA with U26C, C27G, C28A, C29G, C30A
DNA 1: CAATCTGAATTCCGGTCTCCC
DNA 2: TGGTGGCTACGACGGGATT
B29: GUCGGUA (DNA:RNA)
RNA: B1 RNA with A25G, C28G, C29G, C30U, U31A
DNA 1: CAATCTGAATTCCGGTCTCCC
DNA 2: TGGTGGCTACGACGGGATT
B30: CAAAGAC (DNA:RNA)
RNA: B3 RNA with G27A, G28A, A29G, A31C
DNA 1: CAATCTGAATTCCGGTCTCCC
DNA 2: TGGTGGCTACGACGGGATT
B31: CACAUUU (DNA:RNA)
RNA: B1 RNA with A25C, U26A, C28A, C29U, C30U
DNA 1: CAATCTGAATTCCGGTCTCCC
DNA 2: TGGTGGCTACGACGGGATT

Each binder was assayed against T1, RBFOX1 RRM (assay: EMSA; HiTS-Eq, 1 nM pool, 10 min; buffer printed only for the single-RNA assays: 10 mM Tris pH 7.5, 150 mM NaCl, 3.4 mM EDTA, 0.001% NP-40, 30 C). Conditions: tags: His6 N-terminal (pET28a); label: 5' 32P.
Procedure, shortened: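 Relative association constants, normalised to the cognate motif, were derived by comparing read counts of each RNA species with those of the control reaction. The RNA sequenced was the free fraction, separated by 8% native PAGE after a 10 min equilibration in 50 µL of 1 nM 5′-radiolabelled RNA (7 randomized nucleotides) with increasing concentrations of purified wild-type or mutant RbFox RRM.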

First: B1
Second: B2
The binding signal of the first is lower: 0.00188 KA relative to UGCAUGU for the first, 0.00757 KA relative to UGCAUGU for the second.

Compared with B3, B4 is lower in binding signal: 0.0109 KA relative to UGCAUGU for the first, 0.0101 KA relative to UGCAUGU for the second.

First: B5
Second: B6
The binding signal of the first is lower: 0.0013 KA relative to UGCAUGU for the first, 0.00638 KA relative to UGCAUGU for the second.

First: B7
Second: B8
The binding signal of the first is lower: 0.000422 KA relative to UGCAUGU for the first, 0.0051 KA relative to UGCAUGU for the second.

First: B9
Second: B10
The binding signal of the first is lower: 0.0116 KA relative to UGCAUGU for the first, 0.0117 KA relative to UGCAUGU for the second.

First: B11
Second: B12
The binding signal of the first is lower: 0.00414 KA relative to UGCAUGU for the first, 0.0079 KA relative to UGCAUGU for the second.

First: B13
Second: B14
The binding signal of the first is higher: 0.0117 KA relative to UGCAUGU for the first, 0.00899 KA relative to UGCAUGU for the second.

First: B15
Second: B16
The binding signal of the first is lower: 0.00179 KA relative to UGCAUGU for the first, 0.0019 KA relative to UGCAUGU for the second.

First: B17
Second: B18
The binding signal of the first is lower: 0.0164 KA relative to UGCAUGU for the first, 0.0193 KA relative to UGCAUGU for the second.

Compared with B19, B20 is higher in binding signal: 0.0149 KA relative to UGCAUGU for the first, 0.0156 KA relative to UGCAUGU for the second.

First: B21
Second: B22
The binding signal of the first is lower: 0.00518 KA relative to UGCAUGU for the first, 0.00829 KA relative to UGCAUGU for the second.

First: B23
Second: B24
The binding signal of the first is lower: 0.00878 KA relative to UGCAUGU for the first, 0.0125 KA relative to UGCAUGU for the second.

Compared with B25, B26 is lower in binding signal: 0.0136 KA relative to UGCAUGU for the first, 0.00395 KA relative to UGCAUGU for the second.

First: B27
Second: B28
The binding signal of the first is lower: 0.00139 KA relative to UGCAUGU for the first, 0.0074 KA relative to UGCAUGU for the second.

Compared with B29, B30 is lower in binding signal: 0.0155 KA relative to UGCAUGU for the first, 0.00187 KA relative to UGCAUGU for the second.

With B31 the binding signal was 0.00171 KA relative to UGCAUGU.
